The results in this text go back to patent US20240383955A1, “MODIFIED ANTIMICROBIAL PEPTIDES” (priority 2021, published 2024).

Each structure is given as a SMILES string.

Assay [1] has as its system C. glabrata. As to the kind of experiment: Peptide or protein/Fluconazole combination, MIC and FICI. The note with it: Full Length MtDef4 Protein/Fluconazole combination.
The test system of assay [2] is C. albicans. The assay is described as above. Conditions: Full Length MtDef4 Protein/Fluconazole combination.

With `OC(Cn1cncn1)(Cn1cncn1)c1ccc(F)cc1F` [Fluconazole, reference compound], the MIC in combination in assay [1] worked out at 64 µg/mL; in assay [2], 2 µg/mL.
